The supplement of paper PMC10126150
Sequences with one replicate were seen in a single cluster, so their values are uncertain.

Test system: ATP
Test: switch fluorescence ratio, 500 uM ATP over buffer (Cy3 cluster intensity, sum of 5 cycles each) (fold (ratio)); higher = stronger signal-on switching upon ATP binding; sequences stand for … in TCGTCGGCAGCGTCAGATGTGTATAAGAGACAGTTTTTTTTTTTTTTTTTTTTTTTTT…TC
Conditions: aptamer strand: ATP DNA aptamer (quencher-CACCTGGGGGAGTATTGCGGAGGAAGG + anchor), 100 nM annealed; ATP concentration: 500 uM; one replicate
Procedure, shortened: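 Exposure to 500 uM ATP lasted 15 min at 22 °C before imaging, and a selection-buffer image was taken beforehand, for Cy3-labelled switching-strand clusters on a modified Illumina MiSeq flow-cell annealed to 100 nM quencher-labelled ATP aptamer. Five buffer/ATP cycles were run with NaOH stripping and re-annealing between them. The fluorescence ratio per cluster is summed target-cycle over summed buffer-cycle Cy3 intensity, averaged per switch-domain sequence. Clusters outside 100-1000 RFU were excluded.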

Sequence | switch fluorescence ratio
TACTCCTCG | 1.1
TCCTAGAAGC | 1.06
GAGGTTTGAC | 0.967
CAGTATCAGT | 0.995
GACCCGCGGC | 1.02
AGCGTATAAC | 1.06
GTTACTGCCA | 1.16
TCACAAACGT | 1.36
GGGAAGCAAA | 1.03
GAACACACCG | 1.19
AAATCATCC | 1.11
GAAGTGTCTT | 1.02
TACAACCCAC | 1.36
TGCCTGCATA | 0.992
ACAAGAGGAT | 0.989
TGGGGGCAT | 0.979
GCTTTTTCCG | 1.13
TGATTGACTC | 1.02
GAGAGCTCGG | 0.992
AGTGGATCGC | 1.01
TATCGTCTCG | 0.993
AGATGAGCTA | 1
AGTGATTCT | 1.04
TGAAGTTTGG | 0.983
ACGGCATTGT | 1.12
ATTCAAGGCA | 0.985

Sequence | switch fluorescence ratio
TTGTGCGTCA | 1.03
CACAGAAGTA | 0.97
TGCGGGCGTG | 0.972
CGTACATAGC | 1.13
AGAACTGGGG | 1.02
TTGGCTTCGG | 1
CTGTGTACCA | 1
CGCGTCACTC | 1.78
GCTTTCCGGT | 1.01
GTGATAGCAT | 1.02
TAACTGTCAC | 1.32
ACTATTTAGT | 0.948
GTGATATTGA | 1.01
TTTGACTGCA | 1.02
GCAACGTATT | 1.07
GATATCTTCG | 1.03
AATTAGTT | 1.01
GGGAGTTGTC | 0.986
GGAGGCTCGT | 1.01
TTTTTC | 0.983
TTCGACAGCA | 1.1
GCCGTAAAAG | 1.03
AAATGGGCAT | 1.02
TGTCACCGG | 1.04
ACCCGGCGGA | 1.05
TCGCACATTT | 1.1

Sequence | switch fluorescence ratio
GATAAGTTGC | 1.11
TTGTTGGGTA | 1.01
TTTGCAACCT | 1.6
ATGCTGCATT | 1.03
TAAAGATTTA | 1.03
TGTATAAGGG | 0.999
GACGTGGCTA | 1.04
TAAGCCCTAA | 0.997
CGGGACTCGA | 0.996
TTTTGCACAT | 0.986
TTTACGAGCT | 1.01
GCGTGCGCGC | 0.988
AAGCGATAGT | 1.15
CGGGTACGTT | 0.944
ACTACGATAA | 1.39
TACTTTGAAG | 1.04
TGAAAAGAAT | 0.988
TTTCCGTCTT | 1.01
ACTTGGTTAT | 1.02
GTAGGGCCAT | 1.01
TAAGCGGACT | 1.02
TCGTTGTATT | 1.01
TTTAAATCC | 1.03
GGTCTCATTT | 1.01
TGGAATGTGG | 1
TCAAAGGGGA | 1

Sequence | switch fluorescence ratio
TGTTAACGTG | 0.961
AAAACAGGA | 1
TTGATGATGG | 1.01
GTAAACTTTT | 1.44
TTGCAGCAG | 1.27
GGCTTAATAT | 1.02
ACAAACCTCG | 1.12
TTAGGTAAAA | 0.958
GATCAGTAGG | 1.02
AATATAATCG | 0.966
TTCGGAGCTA | 1.29
CGCTCCCGGC | 1.03
CCTTCCCTTG | 1.48
GGGCGTTAGT | 1
GAGGGCAGGT | 0.99
GATGTAG | 1.02
AACGCCTTGG | 1.01
GGTTTGTGAG | 0.968
AACAAGATAT | 1
ATCCCCGGGG | 1.03
GCGACAAGCC | 1.09
TGGGGCACAC | 1.03
TACCGGGAGG | 1
ACATCCCTGC | 1.06
ACGCCAAGTT | 1.04
TTATAACTT | 0.992

Sequence | switch fluorescence ratio
CAGGTCCCGT | 0.98
CTAGACAGTC | 1.05
GCGTTAGCT | 1.01
GGCCCACAGA | 0.974
TAGGACGAG | 0.985
CGATAGGTCA | 1.02
ATACAGACTG | 0.966
GCGCAGAGGC | 1.06
CGGGCCAAAC | 1.05
CTTTACTGAA | 1
AGATGATTAT | 1.02
CTGAATAACG | 0.988
GATTTTGGCA | 0.989
ACGGTTTTGT | 0.954
TTGGTTAAAC | 0.971
AGTCGTGCGT | 0.957
ACTCGGAGA | 1.01
AGAGCTGGG | 1.01
CGTTTGTCGC | 0.969
TGACTCATG | 1.01
CGCCTAAACT | 1.03
TATGCGGTTA | 0.969
GGCTGAAAGG | 0.981
GGTCACGGGA | 0.997
TTTTCGTGAG | 1.02
TATTGCTTTT | 1.07

Sequence | switch fluorescence ratio
ATACCCGGCA | 1.04
AGTGTTTACC | 1.09
TGAGACCGCG | 1.01
TCGTCTATT | 1.04
GATATTTACA | 1.03
GTGATAAAGT | 0.998
GAGAAATCAG | 1.01
TTGGGCCCGA | 0.962
TTATTGTCGG | 0.963
TTGGCTGTCA | 0.981
GAACGTGTAG | 1.01
ACGGTAACTA | 1.02
CTTACATGGT | 0.981
TCGTATAGGG | 0.981
ACGAAAAGTA | 1.06
CATGCCGAGC | 1.07
CATAGGTCCA | 0.983
AGACGCCGAG | 1.02
GGTGCCGGGA | 0.957
ATGTAGCGTC | 1.09
TGCATGTGCA | 0.977
TCAAATTTCC | 1.04
TCGAGGGCCT | 1.01
CTTTGAGTG | 0.976
ATCGTGCACT | 0.979
CGTGTTGACT | 1.01

Sequence | switch fluorescence ratio
TGTCGCACAC | 2.22
TAGGTATTG | 0.975
GTGCGACTGC | 0.983
TAAAAGGAAC | 1.06
AGAAGTCAGG | 1.02
GTGGGTTAGC | 0.95
GAGTTTGCG | 0.986
CCGTTACTAG | 1.26
GAGTTTCCGG | 0.949
AGGATGAAGG | 0.972
AAATGCATTA | 1.01
GCCCATAAAT | 0.962
ACTACCTCTG | 1.32
TGAATTGATC | 0.98
TAAACGGCT | 1.02
GTGTGATA | 1.04
ACACGGTCGC | 0.986
TCGGGGGCTA | 0.981
AAGGATACAT | 1.04
TTCTGAAATG | 1.01
ACCTTCAGAC | 2.56
TGAGTGCTAT | 0.947
TCGCTTGGCG | 1.02
TGTCGTCCGT | 0.972
ATCCGGTAGT | 1.03
ATCGTGGTGG | 0.968

Sequence | switch fluorescence ratio
AAAAGGAATT | 1.02
CCTTGGCAAT | 4.92
GAATCAACG | 1
AGCAAGTGGG | 1.08
CGGAGACACT | 1.03
CATCGATCTG | 0.982
CAATACGCTT | 1.15
AGACTTTTGT | 0.976
AAGACTTCGG | 1.02
GAGCGTGCGT | 0.942
TCTCTCTGGA | 0.989
ATAAGGCCGC | 1
CATAAACGAG | 0.975
CTCTTCTACC | 1.12
GTCGGGTCGG | 1.01
AGGGGGCACA | 0.989
ATACGATTAT | 1.03
GCTGTTGGCT | 1.01
TAACGAGCGG | 0.942
